# Test results as given in PubChem BioAssay AID1460 (National Center for Advancing Translational Sciences (NCATS), 2008).
# Out of some 270,000 compounds screened, about 5,800 (2.1%) were called active. This list was built around the results that the source calls inconclusive (neither active nor inactive); the mix of calls is not that of the screen. Calls follow the shape of the dose curve; as a rule, active = well fitted inhibition curve with a large enough effect; inconclusive = small, poorly fitted or top-dose-only effect; inactive = flat fitted curve, though single readings scatter. Potencies beside an inconclusive call are fits to weak or partial responses and may not hold up.
# Target: Microtubule-associated protein tau (Homo sapiens) (UniProt P10636)
# Assay: qHTS for Inhibitors of Tau Fibril Formation, Thioflavin T Binding; also: nearly all actives have a fitted effect of over 55% in size
# Details: recombinant tau K18 P301L (four-repeat tau fragment), heparin-induced fibrillization, ThT fluorescence; series mostly up to 57.4 µM
# How it was run: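 K18 P301L tau (15 uM + 0.24 uM Alexa 594-tagged), heparin 20 uM, NaOAc pH 7, 6 h 37 C; ThT 30 uM, 1 h RT, ex 450/em 510 nm.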
# Potency is read from the fitted curve at half-maximal effect; tags tell the direction and shape of the fitted curve.
# Chain of UniProt P10636 (P10636 whole entry, looked up): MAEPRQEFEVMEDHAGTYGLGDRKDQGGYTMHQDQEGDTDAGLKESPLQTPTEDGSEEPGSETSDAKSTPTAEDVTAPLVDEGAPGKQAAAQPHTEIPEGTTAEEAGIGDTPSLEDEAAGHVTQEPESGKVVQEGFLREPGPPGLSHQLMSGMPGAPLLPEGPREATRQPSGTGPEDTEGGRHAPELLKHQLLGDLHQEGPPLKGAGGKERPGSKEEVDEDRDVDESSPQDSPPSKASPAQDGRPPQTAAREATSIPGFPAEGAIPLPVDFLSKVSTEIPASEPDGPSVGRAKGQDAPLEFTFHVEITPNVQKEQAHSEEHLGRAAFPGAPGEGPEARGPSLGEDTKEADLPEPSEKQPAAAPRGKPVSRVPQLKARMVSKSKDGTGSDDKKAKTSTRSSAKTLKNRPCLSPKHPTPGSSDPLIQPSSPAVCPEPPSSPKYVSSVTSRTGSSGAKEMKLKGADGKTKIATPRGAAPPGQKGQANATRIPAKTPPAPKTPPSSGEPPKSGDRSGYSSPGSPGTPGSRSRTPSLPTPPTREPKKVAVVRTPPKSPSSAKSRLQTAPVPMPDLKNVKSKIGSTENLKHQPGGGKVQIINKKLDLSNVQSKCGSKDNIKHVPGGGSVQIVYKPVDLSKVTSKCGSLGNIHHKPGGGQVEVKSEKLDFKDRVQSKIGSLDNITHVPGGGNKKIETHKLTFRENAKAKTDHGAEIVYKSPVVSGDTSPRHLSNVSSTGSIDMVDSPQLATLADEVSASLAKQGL
row,SMILES,Potency
1,O=C(NCCC1=CCCCC1)N[C@@H](Cc1ccccc1)C(=O)O,"inconclusive: 2 µM [inhibitor, full curve, poor fit]"
2,c1ccc(Nc2nc(CSc3ncn[nH]3)cs2)cc1,"inconclusive: 15.8 µM [inhibitor, partial curve, poor fit]"
3,COc1ccc(C(=O)CSc2nn3c(=O)c(C(C)(C)C)nnc3s2)cc1,"inconclusive: 28.2 µM [inhibitor, partial curve]"
4,O=C(COC(=O)c1ccc2c(c1[N+](=O)[O-])C(=O)c1ccccc1C2=O)NC1CC1,active: 10 µM
5,Cc1cc2cc(C)c(NCCNC(=O)c3ccccc3Cl)nc2cc1C,"inconclusive: 25.1 µM [inhibitor, partial curve]"
6,Cc1ccc(C(=O)Nc2ccc(-n3c(C)nc4ccccc4c3=O)cc2)cc1[N+](=O)[O-],"inconclusive: 14.1 µM [inhibitor, partial curve]"
7,COc1ccccc1N1CSC2=C(C#N)C(c3ccc(SC)cc3)CC(=O)N2C1 (configuration not stated),active: 28.2 µM
8,O=[N+]([O-])c1cccc(-c2noc(-c3cccs3)n2)c1,"inconclusive: 0.708 µM [inhibitor, full curve, poor fit]"
9,COc1ccc(C2CC(=O)c3cc(-c4nc(-c5ccc(Cl)cc5)cs4)c(=O)[nH]c3C2)cc1 (configuration not stated),"inconclusive: 20 µM [inhibitor, partial curve, poor fit]"
10,CSc1nc2ccc(NS(=O)(=O)c3ccc([N+](=O)[O-])cc3)cc2s1,"inconclusive: 28.2 µM [inhibitor, single point]"
11,COc1cc(N)n(S(=O)(=O)c2ccc(C)cc2)n1,inactive
12,CC(=O)OCc1cnc(C)c2oc(=O)c(C(=O)Nc3ccc(F)cc3C)cc12,"inconclusive: 12.6 µM [inhibitor, partial curve]"
13,O=c1[nH]c(-c2ccc(Cl)cc2)cs1,inactive
14,Oc1cccc2c(NC(=S)Nc3ccc(SC(F)F)cc3)cccc12,active: 10 µM
15,O=C(NC(NNc1ccc([N+](=O)[O-])cc1)(C(F)(F)F)C(F)(F)F)c1ccccc1Cl,"inconclusive: 15.8 µM [inhibitor, partial curve]"
16,O=C(Nc1ncc(Cc2cccc(Cl)c2)s1)C1=NCCN1,inactive
17,Cc1nn(-c2ccccc2)c2c1C1(C(=O)N(C)c3ccccc31)C(C#N)=C(N)O2 (configuration not stated),active: 22.4 µM
18,COc1ccc(-n2c(=O)c3ccccc3n(Cc3ccc(F)cc3Cl)c2=O)cc1OC,inactive
19,Cc1noc(C)c1CSc1nc2ccccc2n1CCc1ccccc1,"inconclusive: 35.5 µM [inhibitor, single point]"
20,COC(=O)c1c(SCC(=O)Nc2cccc(C(F)(F)F)c2)[nH]c2ccccc2c1=O,active: 14.1 µM
21,COc1ccc(OC)c(-c2cc(C(=O)N3CCc4ccccc4C3)no2)c1,"inconclusive: 14.1 µM [inhibitor, partial curve]"
22,COc1ccccc1OCC(=O)NCC1(N(C)C)CCCCC1,inactive
23,Cc1ccc(C2CC(=O)Oc3c(C(C)C)ccc(C)c32)cc1 (configuration not stated),inactive
24,Cc1ccc(N2CC(NC(=O)C(=O)c3c[nH]c4ccccc34)CC2=O)cc1 (configuration not stated),inactive

row,SMILES,Potency
1,Cc1nc2cc(NC(=O)N3CCN(c4ccccn4)CC3)ccc2o1,inactive
2,CCOc1cc(CNc2ccc(O)cc2)cc(Br)c1OCc1ccccc1F,active: 25.1 µM
3,Cc1ccc(C2C(C#N)=C(N)Oc3c2oc(CO)cc3=O)o1 (configuration not stated),"inconclusive: 17.8 µM [inhibitor, single point]"
4,O=C(/C(=C/O)N=Nc1ccccc1)c1ccncc1,active: 14.1 µM
5,Cc1cc(Cl)ccc1NC(=O)CSc1nnc(-c2ccncc2)n1Cc1ccco1,"inconclusive: 25.1 µM [inhibitor, single point]"
6,COC(=O)c1sc(NC(=O)CSc2n[nH]c(N)n2)c(C(=O)OC)c1C,inactive
7,CCS(=O)(=O)NCCNc1ccc([N+](=O)[O-])cc1,"inconclusive: 22.4 µM [inhibitor, partial curve]"
8,C/C(=N\NC(=O)c1cc(C2CC2)nc2ccccc12)c1ccc(C)s1,inactive
9,CCCC(=O)OCCNc1cc(Sc2nc3ccccc3[nH]2)c2nonc2c1[N+](=O)[O-],"inconclusive: 14.1 µM [inhibitor, partial curve]"
10,CCSc1ccc2cc(OC)ccc2[n+]1CC,"inconclusive: 35.5 µM [inhibitor, partial curve]"
11,Cc1cc(C(C)(C)C)cc(C)c1Cn1c2[n+](c3ccc(C(F)(F)F)cc31)CCCCC2,"inconclusive: 15.8 µM [inhibitor, single point]"
12,CCOC(=O)c1cccc(NC(=O)Nc2ccc(OCC)cc2)c1,"inconclusive: 15.8 µM [inhibitor, partial curve]"
13,CCOC(=O)c1c(S(=O)(=O)N2CCC(C(=O)N3CCN(c4cc(C)ccc4C)CC3)CC2)c(C)n(C)c1C,inactive
14,CCCOc1ccccc1NC(=O)/C=C/C(N)=O,"inconclusive: 28.2 µM [inhibitor, partial curve]"
15,CCOc1cccc(C=Nc2cc(C)cc(C)c2O)c1O,active: 25.1 µM
16,Cc1ccc(C(=O)CNc2ccc(Cl)cc2)cc1,"inconclusive: 10 µM [inhibitor, partial curve, poor fit]"
17,COc1cccc(N2CCN(S(=O)(=O)c3ccc4c(c3)CCCN4C(C)=O)CC2)c1,inactive
18,COc1cc(/C=C2\SC(=S)N(Nc3ncc(C(F)(F)F)cc3Cl)C2=O)cc(OC)c1OC,"inconclusive: 17.8 µM [inhibitor, partial curve]"
19,C/C(=N\NC(=O)Cc1cccn1C)c1ccc2ccccc2c1,"inconclusive: 17.8 µM [inhibitor, partial curve]"
20,COc1cc(C2c3c(n[nH]c3C)C(=O)N2c2ccc(Br)cc2)ccc1O (configuration not stated),"inconclusive: 39.8 µM [inhibitor, single point]"
21,Cc1cccc(NC(=O)CSc2nnc(-c3ccncc3)n2C)c1,inactive
22,CC(=O)N1CCc2cc(Br)cc(S(=O)(=O)N3CCN(c4cccc(C)c4)C(C)C3)c21 (configuration not stated),inactive
23,CCOC(=O)Cc1nnc(NC(=O)COc2ccc(F)cc2)s1,"inconclusive: 28.2 µM [inhibitor, partial curve]"
